Experimental findings from patent publication US20220125947A1 are described below.

Residue numbers refer to the chain shown, from its start.

The target in assay [1] is T cell receptor (TCR) Vγ9 (TRGV9) (human), Q99603. The assay is described as follows: cell-based or functional assay.
The target in assay [2] is TCR Vδ2 (TRDV2) on γδ T cells in PBMCs (human), A0JD36. The experiment in a line: cell-based or functional assay.
TCR Vδ2 (TRDV2) on γδ T cells in PBMCs (human), A0JD36, sequence (A0JD36 20-115, stated change not applied): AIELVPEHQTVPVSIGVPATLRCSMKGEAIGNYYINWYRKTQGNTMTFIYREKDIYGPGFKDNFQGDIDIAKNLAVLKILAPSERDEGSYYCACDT

T cell receptor (TCR) Vγ9 (TRGV9) (human), Q99603, sequence (Q99603 21-122): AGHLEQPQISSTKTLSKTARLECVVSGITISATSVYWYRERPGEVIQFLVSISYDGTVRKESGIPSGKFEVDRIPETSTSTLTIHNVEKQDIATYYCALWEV

B1: VG9B128 (antibody, human IgG1, kappa)
heavy: EVQLVESGGGVVQPGKSLRLSCTASGFTFGTYGMHWVRQAPGKGLDWVAVIWYNGSNKYYADSVKGRFTISRDNSKNTLYLQMNSLRTEDTAVYYCARGGFGESFDSWGQGTLVTVSS[human IgG1 constant region omitted here]
light: DIVMTQTPATLSLSPGERATLSCRASQSVIDYLAWFQQKPGQAPRLLIYDASNRATGIPARFSGSGSGTDFTLTISSLEPEDFAVYYCQQRSNWPLTFGGGTKVEIKRTVAAPSVFIFPPSDEQLKSGTASVVCLLNNFYPREAKVQWKVDNALQSGNSQESVTEQDSKDSTYSLSSTLTLSKADYEKHKVYACEVTHQGLSSPVTKSFNRGEC
Turning to B1, in assay [1], the CD25+ (Vg9+ cells) came to 36.6%; the CD71+ (Vg9+ cells) came to 97.4%; the Granzyme B (Luminex, supernatant) turned out to be 4850; the IFNγ (Luminex, supernatant) came out at 1240. In assay [1], this molecule registered an IL6 (Luminex, supernatant) of 304; a TNFα (Luminex, supernatant) of 3960; a Vg9 T cell % of 9.6%.

B2: VG9B65 (antibody, human IgG1, kappa)
heavy: QVQLVQSGAEVKKPGSSVKVSCKASGGTFNIYAINWVRQAPGQGLEWMGGIIPFFGTANYAQKFQDRVTITADKSTNTAYMELSSLRSEDTAVFYCARGGDSGYDWGFDYWGQGTLVTVSS[human IgG1 constant region omitted here]
light: DIVMTQTPLSSPVTLGQPASISCRSSQSLVHSDGNTYLSWLQQRPGQPPRLLIYQISNRFSGVPDRFSGSGAGTDFTLNISRVEADDVGVYYCMQATQFPLTFGGGTKVEIKRTVAAPSVFIFPPSDEQLKSGTASVVCLLNNFYPREAKVQWKVDNALQSGNSQESVTEQDSKDSTYSLSSTLTLSKADYEKHKVYACEVTHQGLSSPVTKSFNRGEC
For B2, in assay [2], the CD25+ (Vg9+ cells), flow staining stood at 24.6%; the CD71+ (Vg9+ cells), flow staining amounted to 96.4%; the Granzyme B (Luminex, supernatant) is 1040; the IFNγ (Luminex, supernatant) worked out at 179. In assay [2], this molecule returned an IL6 (Luminex, supernatant) of 190; a TNFα (Luminex, supernatant) of 42; a Vg9 T cell %, flow staining of 7.2%.

B3: VG9B106 (antibody, human IgG1, kappa)
heavy: EVQLVQSGAEVKKPGASVKVSCKASGYTFTGYYLHWVRQAPGQGLEWVGWINPSSGDTDYAQTFQGRVTMTRDTSISTAYMELSRLRSDDTAVYYCANELGIGVFDYWGQGTLVTVSS[human IgG1 constant region omitted here]
light: DIVMTQSPDSLAVSLGERATINCKSSQSVLYSSNNKNYLGWYQQKPGQPPKLLIYWASTRESGVPDRFSGSGSGTDFTLTISSLQAEDVAVYFCQQYYSIPYTFGQGTKVDIKRTVAAPSVFIFPPSDEQLKSGTASVVCLLNNFYPREAKVQWKVDNALQSGNSQESVTEQDSKDSTYSLSSTLTLSKADYEKHKVYACEVTHQGLSSPVTKSFNRGEC
B3: in assay [2], the CD25+ (Vg9+ cells), flow staining is 12.2%; the CD71+ (Vg9+ cells), flow staining was found to be 73.9%; the Granzyme B (Luminex, supernatant) came to 287; the IFNγ (Luminex, supernatant) was 44. Further, in assay [2], the IL6 (Luminex, supernatant) was 39; the TNFα (Luminex, supernatant) amounted to 119; the Vg9 T cell %, flow staining worked out at 3.5%.

B4: VG9B129 (antibody, human IgG1, kappa)
heavy: EVQLVQSGAEVKKPGSSVKVSCKASGGTFSSYVISWVRQAPGQGLEWMGGILPILSTANYAQKFQGRVTITADKSTSTAYMELSSLRSEDTAVYYCARAHDYYYGMDVWGQGTTVTVSS[human IgG1 constant region omitted here]
light: [about 100 residues omitted here][about 120 residues omitted here]
In assay [1], B4 gave a CD25+ (Vg9+ cells) of 16.4%; a CD71+ (Vg9+ cells) of 73.4%; a Granzyme B (Luminex, supernatant) of 305; an IFNγ (Luminex, supernatant) of 36. Moreover, in assay [1], the IL6 (Luminex, supernatant) was 94; the TNFα (Luminex, supernatant) came to 192; the Vg9 T cell % was determined as 3.6%.

B5: VG9B27 (antibody, human IgG1, kappa)
heavy: B4 heavy with T114M
light: [about 100 residues omitted here][about 120 residues omitted here]
For B5, in assay [2], the CD25+ (Vg9+ cells), flow staining was determined as 35.4%; the CD71+ (Vg9+ cells), flow staining stood at 92.6%; the Granzyme B (Luminex, supernatant) is 4120; the IFNγ (Luminex, supernatant) worked out at 1490. In assay [2], the IL6 (Luminex, supernatant) was 274; the TNFα (Luminex, supernatant) is 3540; the Vg9 T cell %, flow staining was determined as 4%.
